Source: patent US20100316570A1 (University of Pennsylvania, published 2010)

Biological target: SIRPα on human-derived THP-1 macrophages (human, UniProt P78324 31-504)
Experiment: cell-based or functional assay

Sequence of UniProt P78324 (P78324 31-504): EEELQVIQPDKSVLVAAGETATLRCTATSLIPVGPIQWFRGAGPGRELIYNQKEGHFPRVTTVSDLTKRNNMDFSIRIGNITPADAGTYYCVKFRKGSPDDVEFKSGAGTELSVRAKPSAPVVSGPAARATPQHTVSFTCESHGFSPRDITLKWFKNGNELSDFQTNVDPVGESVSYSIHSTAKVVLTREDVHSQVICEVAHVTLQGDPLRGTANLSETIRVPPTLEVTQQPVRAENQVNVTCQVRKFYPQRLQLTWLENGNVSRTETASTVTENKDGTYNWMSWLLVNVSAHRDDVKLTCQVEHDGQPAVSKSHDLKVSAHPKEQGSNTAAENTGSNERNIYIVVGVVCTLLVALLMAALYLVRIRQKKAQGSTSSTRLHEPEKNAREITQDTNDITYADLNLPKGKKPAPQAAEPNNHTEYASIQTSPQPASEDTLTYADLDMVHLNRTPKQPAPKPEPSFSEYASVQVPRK

B1: human CD47 on human red blood cells (ligand)
chain: not shown
**Q.** For B1, which “enrichment of SIRPα at the phagocytic synapse, human-RBC contacts compared with sheep RBCs or CD47-blocked human RBCs” value is on record?
**A.** 5 fold

**Q.** And the “nonmuscle myosin IIA localization to the phagocytic synapse, human RBCs versus sheep RBCs and CD47-blocked human RBCs” value?
**A.** 3.8 fold decrease

**Q.** What about the “phospho-paxillin delocalization from the phagocytic synapse” value of the same binder?
**A.** 3 fold

**Q.** What about the “phosphotyrosine at the phagocytic synapse, human RBCs versus sheep RBCs or CD47-blocked human RBCs” value of the same binder?
**A.** 3.2 fold lower
